Drawing on PubChem BioAssay (NCI), this text covers GI50 and TGI for one molecule.

The subject of this assay is NCI-H322M lung. Description: NCI-60 cell line screen, 48 h.

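Briefly, cells in 96-well plates were exposed to five compound concentrations for 48 h, and endpoints were estimated by linear interpolation. Here, GI50 denotes the concentration required for 50% inhibition of growth. Definition used: TGI = concentration required for complete inhibition of growth.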 Some results are limits rather than exact numbers.

Turning to `CN1CCN(c2ccc(C(=O)/C=C/c3ccc(Br)cc3)cc2)CC1`, the GI50 was greater than 100 µM and the TGI was greater than 100 µM.
